# Experimental data reported in PMC4336329 (PLoS ONE, 2015).
# About 2,200 (0.71%) of roughly 310,000 compounds showed an effect of 50% or more. Effects have a minus sign here. This is one part of the list.
# Molecular target: human ether-à-go-go-related gene (hERG) potassium channel (human, UniProt Q12809)
# Assay: primary screen, population patch clamp on CHO cells stably expressing hERG
# human ether-à-go-go-related gene (hERG) potassium channel, sequence (Q12809 whole entry, looked up): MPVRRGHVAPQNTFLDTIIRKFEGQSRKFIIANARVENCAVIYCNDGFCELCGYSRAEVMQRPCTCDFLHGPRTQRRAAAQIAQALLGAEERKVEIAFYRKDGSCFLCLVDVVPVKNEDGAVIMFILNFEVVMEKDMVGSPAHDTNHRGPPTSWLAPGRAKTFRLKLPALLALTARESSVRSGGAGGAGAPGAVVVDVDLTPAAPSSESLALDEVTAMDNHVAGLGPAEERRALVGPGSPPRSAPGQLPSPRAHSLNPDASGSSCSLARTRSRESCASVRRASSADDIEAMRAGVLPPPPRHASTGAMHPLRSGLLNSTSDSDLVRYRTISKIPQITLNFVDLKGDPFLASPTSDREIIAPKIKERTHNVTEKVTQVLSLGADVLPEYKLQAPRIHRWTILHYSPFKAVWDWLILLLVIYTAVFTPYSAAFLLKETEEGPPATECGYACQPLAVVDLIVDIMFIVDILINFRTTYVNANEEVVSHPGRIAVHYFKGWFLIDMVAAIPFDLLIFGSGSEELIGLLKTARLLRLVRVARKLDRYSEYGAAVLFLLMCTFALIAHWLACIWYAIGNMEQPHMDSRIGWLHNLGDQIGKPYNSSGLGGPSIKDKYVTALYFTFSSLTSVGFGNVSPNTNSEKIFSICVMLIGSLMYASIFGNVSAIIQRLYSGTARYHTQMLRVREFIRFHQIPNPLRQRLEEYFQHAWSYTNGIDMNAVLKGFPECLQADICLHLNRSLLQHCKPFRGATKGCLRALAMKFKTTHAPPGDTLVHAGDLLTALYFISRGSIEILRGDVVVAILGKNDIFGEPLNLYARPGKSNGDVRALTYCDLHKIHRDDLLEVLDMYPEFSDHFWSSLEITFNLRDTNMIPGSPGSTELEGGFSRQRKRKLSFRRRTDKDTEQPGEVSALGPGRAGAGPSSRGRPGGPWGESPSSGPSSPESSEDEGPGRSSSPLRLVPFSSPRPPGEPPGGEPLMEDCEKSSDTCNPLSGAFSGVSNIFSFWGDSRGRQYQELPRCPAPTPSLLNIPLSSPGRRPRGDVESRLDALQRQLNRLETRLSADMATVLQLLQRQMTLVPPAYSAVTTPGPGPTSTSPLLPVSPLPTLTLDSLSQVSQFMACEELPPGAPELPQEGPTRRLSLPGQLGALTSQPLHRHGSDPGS
row,SMILES,"hERG current change (%, negative = inhibition) at 1uM"
1,O=C(c1ccc(F)cc1)C1CCN(C(=O)c2ccc(F)cc2)CC1,2.31%
2,Cc1ccc(NC(=O)Nc2nnc(CSCCOc3ccc(Cl)cc3)s2)cc1,4.92%
3,CCCC(CCC(=O)Nc1nccs1)C(=O)O (stereo not shown),17.6%
4,O=C1CSc2ccc(S(=O)(=O)N3CCN(c4ccccc4)CC3)cc2N1,11.3%
5,CC(=O)NCCn1c(SCc2ccc(C)cc2C)nc2ccccc2c1=O,5.66%
6,Cc1ccc2nc(-c3ccc(O)c(O)c3)cn2c1.Cl,9.44%
7,Cl.N=c1ccccn1Cc1ccccc1,11.2%
8,O=C(CN(C(=O)c1csnn1)c1ccc(F)c(Cl)c1)NCc1ccccc1,7.54%
9,Clc1cccc(CN2CCCCC2c2cccnc2)c1 (stereo not shown),5.41%
10,N#CC1(NC(=O)Cn2cc(C(F)(F)F)cc(Cl)c2=O)CCCCC1,12.7%
11,Cc1cc(Nc2n[nH]c(N)c2C#N)ccc1F,-20.1%
12,COc1ccccc1NS(=O)(=O)c1ccc(C(=O)NCc2ccncc2)cc1,0.515%
13,Cc1ccc(NC(=O)CSc2nc3ccccc3c(=O)n2Cc2cccs2)cc1,14.3%
14,Cc1cc(C)n(-c2nc(NC(C)(C)C)nc(NC(C)(C)C)n2)n1,-9.53%
15,COc1cccc(N(CC(=O)NCCSCc2ccco2)S(=O)(=O)c2ccccc2)c1,3.13%
16,CCN(CC)c1ncnc2sc(C(=O)N3CCN(c4ccccc4)CC3)c(C)c12,-1.59%
17,COc1ccccc1-n1cc(-c2ccc([N+](=O)[O-])cc2)[nH]c1=S,9.79%
18,Cc1ccc(C(=O)c2no[n+]([O-])c2C(=O)c2ccc(C)cc2)cc1,-1.36%
19,O=C(Cn1ccc(NC(=O)OCc2ccccc2)nc1=O)NCCCc1ccccc1,18.3%
20,COc1cccc(C(=O)Nc2nc(-c3ccc(S(=O)(=O)N4CCOCC4)cc3)cs2)c1,7%
21,CCOc1ccc(C(=O)NCCc2cnc[nH]2)cc1OCC,17%
22,CCN(CC)P(=O)(/C=C(\Cl)c1ccccc1)/C=C(\Cl)c1ccccc1,13%
23,COc1ccc(CCN2CC(C(=O)NCc3ccco3)CC2=O)cc1OC (stereo not shown),11.2%
24,COc1cc(C2NC(=O)NC(C)=C2C(=O)OCC2CCCO2)cc(OC)c1OC (stereo not shown),19.1%
25,O=C1NC(=Nc2cccc([N+](=O)[O-])c2)SC1(CO)CO,2.12%
